# Laboratory results: PMC10668032
# The other results are listed elsewhere or left out. At the low end of the ranking, values are background and their order means little.
# Target: SIX1-Q177R homeodomain (UniProt Q15475)
# Assay: universal protein binding microarray
# Conditions: Universal all-10-mer PBM (8x60K, AMADID 030236), 300 nM GST-tagged protein, Alexa Fluor 488 anti-GST; buffer, salt, pH and temperature not stated; high values mean tight binding; most listed sequences are background and not binding sites; double strand, one strand shown
row,Sequence,binding signal
1,ACGTTAAA,-0.209 E-score
2,CCGGATCA,0.176 E-score
3,GTGGATTA,0.00874 E-score
4,TCCCCGAA,-0.0927 E-score
5,ATCGCGTA,-0.000435 E-score
6,AACCTTGT,-0.12 E-score
7,CTATTCCC,-0.153 E-score
8,GTTCCTGA,-0.276 E-score
9,ACGAGCTG,0.0724 E-score
10,ATGCACAG,-0.107 E-score
11,AGTGTGAG,0.208 E-score
12,AAATAGCG,-0.0889 E-score
13,TCCACTCA,-0.149 E-score
14,CCGGTAAC,0.0714 E-score
15,GCATGGTA,0.0465 E-score
16,ACATCGGC,-0.0802 E-score
17,ACACATGC,0.176 E-score
18,CATGGCCG,-0.0611 E-score
19,GATCCCAA,0.113 E-score
20,CCAATCGA,-0.028 E-score
21,ACACTCCG,0.388 E-score
22,GAGCTGCC,-0.0646 E-score
23,CCCCGCTC,0.0713 E-score
24,TCTACGAA,0.0328 E-score
25,GGGCAGAC,-0.0939 E-score

row,Sequence,binding signal
1,AGCGACCC,0.115 E-score
2,ACCGAGGG,0.0657 E-score
3,CACTCCGA,0.251 E-score
4,CATTGTCG,-0.152 E-score
5,AGGCACCC,0.0742 E-score
6,GTGCTCAA,0.259 E-score
7,ACCCAAAG,-0.0644 E-score
8,AACGCCAC,0.14 E-score
9,ATCACCGA,0.000485 E-score
10,CGAGACCA,-0.159 E-score
11,GAAAGTCA,-0.0544 E-score
12,GGGCCAAA,-0.119 E-score
13,GAAATAGA,-0.171 E-score
14,GTCTTAGA,-0.0692 E-score
15,GCATCCTA,-0.199 E-score
16,AGCAAGGC,-0.0663 E-score
17,CACAGGCA,0.0268 E-score
18,ACATCCAA,-0.126 E-score
19,GGACCGAC,-0.135 E-score
20,AGTCCCCC,-0.221 E-score
21,ATTCCGTC,-0.183 E-score
22,CTCCTTCA,-0.0998 E-score
23,ATTTGGGG,-0.0268 E-score
24,AGTCCAGC,-0.158 E-score
25,GTTAACCA,-0.000155 E-score

row,Sequence,binding signal
1,CATAGCAA,-0.221 E-score
2,CTACCGCA,-0.0614 E-score
3,AGCTTTAG,-0.205 E-score
4,GCCCGGCA,-0.195 E-score
5,TCCTCCCA,-0.158 E-score
6,ACAGTGTA,0.381 E-score
7,GCACTCTA,0.00896 E-score
8,GCCACACC,0.367 E-score
9,ACGATATA,0.0138 E-score
10,CGACACGC,0.424 E-score
11,GCGTCACC,0.127 E-score
12,AGAGGAGA,-0.123 E-score
13,ACACGTAA,0.323 E-score
14,GTTGGCGA,-0.104 E-score
15,CTATAATC,-0.0899 E-score
16,ATCCACGG,-0.0802 E-score
17,CTCGAACC,-0.0671 E-score
18,CGCTTTCA,-0.0918 E-score
19,GCGGCTCC,0.00768 E-score
20,CAGCATAC,-0.234 E-score
21,GCCTAGGC,-0.2 E-score
22,AAGCCTCT,-0.12 E-score
23,AAACGGCT,-0.198 E-score
24,AGCAGTAT,-0.129 E-score
25,AAGGAGAC,-0.106 E-score

row,Sequence,binding signal
1,GCCGGTAA,-0.033 E-score
2,CTCGCGCA,-0.0956 E-score
3,ATGTGATG,0.0182 E-score
4,CCGTACCG,-0.0466 E-score
5,GCTGGTGA,-0.158 E-score
6,ACGACTCG,0.145 E-score
7,GTTTTCGA,-0.169 E-score
8,CCCTCGCC,0.0869 E-score
9,ACTCAAAC,0.0401 E-score
10,GGTGGTAA,-0.0288 E-score
11,CATCGTAA,-0.0939 E-score
12,ATGATCAT,-0.221 E-score
13,CATTCCGG,-0.0597 E-score
14,CTAATCAA,0.141 E-score
15,ATCCAGTA,0.053 E-score
16,CTGAGTTA,-0.123 E-score
17,CGATACAA,0.0318 E-score
18,CAGATAGG,-0.21 E-score
19,AGTATCTG,-0.173 E-score
20,GTACGAAC,-0.0465 E-score
21,AGAGAAAA,-0.185 E-score
22,AGCTCACA,0.0519 E-score
23,AAACCTTG,-0.0519 E-score
24,CACGGGTA,0.291 E-score
25,ACTCGACC,0.18 E-score

row,Sequence,binding signal
1,AGATCGGG,0.00864 E-score
2,TAGCTCCA,-0.124 E-score
3,ATGGTGAC,-0.0466 E-score
4,GAAGAGTA,-0.0747 E-score
5,TCATTACA,0.121 E-score
6,CCTGGAGA,-0.102 E-score
7,CTAGCCGA,-0.0514 E-score
8,GCGTAACC,0.00677 E-score
9,CCGACCGG,0.172 E-score
10,AAAGGTAA,-0.115 E-score
11,CAGAATGA,-0.201 E-score
12,CCCGCAGA,-0.0384 E-score
13,GGGGAGTA,0.256 E-score
14,CGGCGCTA,-0.0894 E-score
15,TCGCTCCA,0.00362 E-score
16,CTACCGTC,-0.0438 E-score
17,ATGAGCAG,-0.208 E-score
18,GCCGGGCC,-0.183 E-score
19,CGCAGTAC,-0.0319 E-score
20,CTCTAAAA,-0.211 E-score
21,CATGATGG,0.00502 E-score
22,TTAAGCAA,-0.0696 E-score
23,ATGTAAGG,-0.0436 E-score
24,GCACCTGC,0.0304 E-score
25,TACATAGA,-0.17 E-score

row,Sequence,binding signal
1,CGTGCAAC,0.0789 E-score
2,CCACGTTC,-0.13 E-score
3,AGCTTCCC,-0.182 E-score
4,GCCGAGAA,-0.23 E-score
5,AGATGCAT,-0.277 E-score
6,CCCAAGTA,-0.105 E-score
7,GAGCCAAC,-0.0196 E-score
8,ACCGTATA,0.0745 E-score
9,ATATGTTA,-0.175 E-score
10,TCCGCCCA,0.0172 E-score
11,GGTCCAAA,-0.0362 E-score
12,ACTGTAGG,0.00611 E-score
13,AACGGTAA,-0.123 E-score
14,ACTGGTAC,0.192 E-score
15,CTTGAACA,0.0794 E-score
16,GGTCACAC,0.384 E-score
17,AACTATGT,-0.229 E-score
18,CTTACATC,0.0188 E-score
19,GGCAGCCA,-0.154 E-score
20,GCACCGCA,0.169 E-score
21,CTCCCAAA,-0.149 E-score
22,ACCCCTGG,0.163 E-score
23,CTGAGGGC,-0.292 E-score
24,GTAAAGCA,0.0324 E-score
25,AATTTGCT,-0.198 E-score

row,Sequence,binding signal
1,GCCAGCAC,0.0623 E-score
2,CGTGAACG,-0.16 E-score
3,GTCTTGTA,-0.183 E-score
4,GGACAATA,0.00495 E-score
5,CCTCTATA,-0.188 E-score
6,TCAGTAGA,-0.164 E-score
7,CATAACGG,-0.0211 E-score
8,CACTAGAG,0.137 E-score
9,AGTTGCAA,-0.204 E-score
10,CTGGAAAA,0.0754 E-score
11,CTGGACGA,-0.178 E-score
12,TGGATACA,0.274 E-score
13,CACGAAAA,0.157 E-score
14,GTCAGCAA,-0.155 E-score
15,AGCCAAGG,-0.1 E-score
16,CGGAGTTA,0.253 E-score
17,GCCCTCGC,0.0477 E-score
18,CCAGAAAG,0.0543 E-score
19,GATCTACA,-0.0241 E-score
20,ACAAACGA,-0.0121 E-score
21,ACACAACA,0.268 E-score
22,AAATAACG,-0.0651 E-score
